Values marked as one replicate rest on one cluster of the flow cell; about a third of the high ones do not repeat.

This note sets out measurements from the supplement of paper PMC10126150.

The data set relates to ATP. The data set is described as follows: switch fluorescence ratio, 500 uM ATP over buffer (Cy3 cluster intensity, sum of 5 cycles each) (fold (ratio)); higher = stronger signal-on switching upon ATP binding; sequences stand for … in TCGTCGGCAGCGTCAGATGTGTATAAGAGACAGTTTTTTTTTTTTTTTTTTTTTTTTT…TC. The note with it: aptamer strand: ATP DNA aptamer (quencher-CACCTGGGGGAGTATTGCGGAGGAAGG + anchor), 100 nM annealed; ATP concentration: 500 uM; one replicate. The essentials:
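Cy3-labelled switching-strand clusters on a modified Illumina MiSeq flow-cell were annealed to 100 nM quencher-labelled ATP aptamer, imaged in selection buffer, then imaged after 15 min with 500 uM ATP at 22 °C. Five buffer/ATP cycles ran, with NaOH stripping and re-annealing between them. The fluorescence ratio is summed target-cycle over summed buffer-cycle Cy3 intensity per cluster, averaged per switch-domain sequence. Clusters outside 100-1000 RFU were excluded.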
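Also: ATP exposure 15 min at 22 °C before imaging.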

Consider TTCGAATTGC, for which the switch fluorescence ratio is 1.1.
Turning to AACGTATCTA, the switch fluorescence ratio was determined as 1.1.
As to TAAGGAAAGC, the switch fluorescence ratio came to 1.05.
CGTGAGGATG: the switch fluorescence ratio turned out to be 1.
In the case of GCTTTCCCGG it was 1.17; in that of TCCCCGGGCG, 1.19; in that of TTGATTCCGT, 1.1.
Consider CCCCCTTTGG, for which the switch fluorescence ratio is 1.75.
Consider AGTAAAAACC, for which the switch fluorescence ratio is 0.984.
As to CGCTTATAGT, the switch fluorescence ratio was determined as 1.15.
On to CTCCGTGGTG, for which the switch fluorescence ratio came out at 2.01.
Consider GTCCTTTGTT, for which the switch fluorescence ratio was found to be 1.05.
Take CTAAAGCTGA: the switch fluorescence ratio was 1.11.
As to CGTGAGCGCC, the switch fluorescence ratio was 0.961.
As for GCAGTCGTCC, the figure is 1.05; as for TGATCGTTTG, 0.93.
On to GTGTGGTATT, for which the switch fluorescence ratio turned out to be 0.979.
ACCAGGCCGT: the switch fluorescence ratio is 0.969.
Consider ACCAGAGTCT, for which the switch fluorescence ratio was 1.02.
Take ACCAATAGCT: the switch fluorescence ratio amounted to 1.04.
As for TGGGCTAGCG, the figure is 0.979.
Turning to TTGGGGTTCC, the switch fluorescence ratio amounted to 0.926.
With GTTGTTCGTC, the switch fluorescence ratio is 0.95.
Take ACTGCTCCGA: the switch fluorescence ratio was determined as 1.3.
In the case of GCGTCCGTTT it was 0.979; in that of TCTGAGGAGT, 1.03.
As for CGTTATGTAG, the figure is 1.03.
Take TCGTTCACAA: the switch fluorescence ratio is 1.14.
For the sequence AGTAACCTCG, the switch fluorescence ratio was found to be 1.03.
In the case of AAGGACCTCT it was 0.979.
As for ACATGCGAAA, the figure is 1.02; as for GGTCCGTTTG, 1.01.
With GACAGAAATA, the switch fluorescence ratio worked out at 1.03.
In the case of TAGCACGTCG it was 1.05; in that of GACAAGAGGT, 1.03; in that of ATGTCCTTGT, 0.993.
On to TAGAAAATGA, for which the switch fluorescence ratio was determined as 0.976.
Take GGGCTTCCCG: the switch fluorescence ratio turned out to be 1.23.
Regarding AGTGCTGAGG, the switch fluorescence ratio came to 0.908.
Consider TCCGGTCTGC, for which the switch fluorescence ratio was 1.07.
As for CTGTCATTCG, the figure is 1.03.
As for AGAGAACCTG, the figure is 1.12.
Consider GCAGGCAAG, for which the switch fluorescence ratio amounted to 1.06.
In the case of CCCTCAACAA it was 2.27; in that of TTCAATCTAG, 1.03.
In the case of TCAGGACTGG, the switch fluorescence ratio came out at 0.992.
In the case of TTGAGGATAC it was 1.28.
In the case of GAATTTTCCT, the switch fluorescence ratio was 1.03.
Turning to CATTTGTTTC, the switch fluorescence ratio was 1.07.
As for GCAAGGGGTA, the switch fluorescence ratio turned out to be 1.03.
Consider ACTTCCTTAG, for which the switch fluorescence ratio was 1.22.
As for AAGCAAGCGC, the switch fluorescence ratio amounted to 1.09.
As for GTTGCTCGTT, the figure is 0.958; as for ACCCCAAAGT, 1.02.
In the case of TCATCTAGG it was 1.21.
As for GGATAAAGTG, the figure is 1.02.
For ACGCGCCAGC, the switch fluorescence ratio is 0.98.
In the case of TCAGAGCAGT, the switch fluorescence ratio is 1.57.
Regarding GAAGTTGAGC, the switch fluorescence ratio came to 1.03.
For TTAGGAACA, the switch fluorescence ratio is 1.03.
Turning to TCTTACGTG, the switch fluorescence ratio is 0.968.
Consider TTGCAAACTT, for which the switch fluorescence ratio amounted to 0.973.
Consider ACTAAAGCAG, for which the switch fluorescence ratio was 1.05.
For the sequence TTGCTAGGGG, the switch fluorescence ratio was 1.07.
Take TGCAGGGTCG: the switch fluorescence ratio was found to be 0.984.
Take CCCGGGCACC: the switch fluorescence ratio was determined as 1.05.
GCCTTTTGAG: the switch fluorescence ratio amounted to 1.05.
Turning to CACGGCATT, the switch fluorescence ratio came to 1.21.
As for GGGCACAGGT, the switch fluorescence ratio is 1.07.
As for GTCAAAAGCT, the figure is 1.06.
As for ACCGGCGATG, the figure is 1.02; as for CTATGACCCA, 1.04.
With TTTGGCTG, the switch fluorescence ratio was 0.953.
CGGAAGGCAC: the switch fluorescence ratio was found to be 1.08.
For GTACTTGCGT, the switch fluorescence ratio turned out to be 0.955.
TTATAGTGCA: the switch fluorescence ratio was determined as 1.
Regarding TGATTGATTC, the switch fluorescence ratio was 0.986.
In the case of TTAACCAAAA it was 1.02; in that of TGTCGATGGG, 0.959.
Turning to CGTTACATAG, the switch fluorescence ratio stood at 1.03.
For AGCTGGATCT, the switch fluorescence ratio was 1.03.
As to ATAAGACCG, the switch fluorescence ratio is 0.963.
For TCTTTAGGTA, the switch fluorescence ratio is 0.981.
Regarding TAGGGTCCCG, the switch fluorescence ratio turned out to be 0.978.
As to CTAGCTGGGG, the switch fluorescence ratio was determined as 0.987.
For the sequence TAGGCTGAG, the switch fluorescence ratio was 1.01.
CGGCACGAGG: the switch fluorescence ratio was found to be 1.
For GCGAAAGGTA, the switch fluorescence ratio was 1.03.
Turning to CCTCCAGGTA, the switch fluorescence ratio is 4.03.
Regarding ACAAGGCCGT, the switch fluorescence ratio was found to be 1.07.
With AAATCACGAT, the switch fluorescence ratio was found to be 1.03.
As for CGGGCCTCGC, the figure is 1.01; as for CCGGGCGAAG, 0.999; as for TTAGTTTTA, 1.03.
Turning to CCGTTAAGCT, the switch fluorescence ratio is 1.69.
Regarding CGCCCTAAAC, the switch fluorescence ratio is 1.72.
For the sequence CCCGTTCGT, the switch fluorescence ratio was found to be 1.
With CGTCAACC, the switch fluorescence ratio came to 1.1.
CCGAGAGAAC: the switch fluorescence ratio amounted to 1.91.
AGGAGTAC: the switch fluorescence ratio is 1.02.
CCAGGCGTCT: the switch fluorescence ratio stood at 0.99.
Consider TGCTGGGGCC, for which the switch fluorescence ratio was found to be 1.02.
For the sequence GATCTCTCTT, the switch fluorescence ratio was 1.
For AAATTTCTTG, the switch fluorescence ratio was 0.962.
As for TATGGCTATT, the figure is 1.01; as for GAGGGGCCAC, 0.991.
Turning to ACAGGGTGAG, the switch fluorescence ratio worked out at 1.04.
Take GCCTTATTCA: the switch fluorescence ratio was 0.977.
Take GGTGGTCGCT: the switch fluorescence ratio is 1.01.
In the case of ACTTGCGGAG it was 1.08.
With CATAGCGTAG, the switch fluorescence ratio came to 0.942.
With ATACTGAACG, the switch fluorescence ratio was 1.17.
For the sequence GCAGTGAGGA, the switch fluorescence ratio is 1.01.
Regarding TCAACAGAGA, the switch fluorescence ratio was found to be 1.02.
As to ATATCGTAGT, the switch fluorescence ratio was determined as 1.01.
For GTCCAAGGTA, the switch fluorescence ratio is 1.
As for TACAATTCTA, the switch fluorescence ratio turned out to be 0.996.
Take GCTTAAATAA: the switch fluorescence ratio stood at 1.
In the case of AGCAAGTGCA it was 1.03; in that of GATTATAGG, 0.981.
